In the supplement of paper PMC8728848:
This is one part of the list.

What was measured:
Assay in all cases: glycan array binding signal (z-score within array); higher = stronger binding
Details in all cases: glycan notation: IUPAC condensed, linker removed
[1] = target: Fuc(a1-2)Gal
In short: (§1)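 The Consortium for Functional Glycomics database supplied 3228 glycan arrays, of which those lacking an available protein sequence were dropped. The binding signal, a within-array Z-score, was averaged across arrays of the same protein sequence and across linkers. Negative scores can be read as non-binding.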

[2] = target: Fuc(a1-2)Gal(b1-3)GalNAc
In short: as §1

[3] = target: Fuc(a1-2)Gal(b1-3)GalNAc(b1-3)Gal
In short: as §1

[4] = target: Fuc(a1-2)Gal(b1-3)GalNAc(b1-3)Gal(a1-4)Gal(b1-4)Glc
In short: as §1

[5] = target: Fuc(a1-2)Gal(b1-3)GalNAc(b1-4)[Neu5Ac(a2-3)]Gal(b1-4)Glc
In short: as §1

[6] = target: Fuc(a1-2)Gal(b1-3)GlcNAc
In short: as §1

[7] = target: Fuc(a1-2)Gal(b1-3)GlcNAc(b1-3)Gal(b1-4)Glc
In short: as §1

[8] = target: Fuc(a1-2)Gal(b1-3)[Fuc(a1-4)]GlcNAc
In short: as §1

[9] = target: Fuc(a1-2)Gal(b1-4)Glc
In short: as §1

[10] = target: Fuc(a1-2)Gal(b1-4)Glc6S
In short: as §1

[11] = target: Fuc(a1-2)Gal(b1-4)GlcNAc
In short: as §1

[12] = target: Fuc(a1-2)Gal(b1-4)GlcNAc(b1-3)Gal(b1-4)GlcNAc
In short: as §1

[13] = target: Fuc(a1-2)Gal(b1-4)GlcNAc(b1-3)Gal(b1-4)GlcNAc(b1-3)Gal(b1-4)GlcNAc
In short: as §1

[14] = target: Fuc(a1-2)Gal(b1-4)GlcNAc6S
In short: as §1

[15] = target: Fuc(a1-2)Gal(b1-4)[Fuc(a1-3)]GlcNAc
In short: as §1

[16] = target: Fuc(a1-2)Gal(b1-4)[Fuc(a1-3)]GlcNAc(b1-3)Gal(b1-4)[Fuc(a1-3)]GlcNAc
In short: as §1

[17] = target: Fuc(a1-2)Gal(b1-4)[Fuc(a1-3)]GlcNAc(b1-3)Gal(b1-4)[Fuc(a1-3)]GlcNAc(b1-3)Gal(b1-4)[Fuc(a1-3)]GlcNAc
In short: as §1

[18] = target: Fuc(a1-2)Gal6S(b1-4)Glc
In short: as §1

[19] = target: Fuc(a1-2)Gal6S(b1-4)Glc6S
In short: as §1

[20] = target: Fuc(a1-2)Gal6S(b1-4)GlcNAc
In short: as §1

[21] = target: Fuc(a1-2)[Gal(a1-3)]Gal
In short: as §1

[22] = target: Fuc(a1-2)[Gal(a1-3)]Gal(b1-3)GlcNAc
In short: as §1

[23] = target: Fuc(a1-2)[Gal(a1-3)]Gal(b1-4)Glc
In short: as §1

[24] = target: Fuc(a1-2)[Gal(a1-3)]Gal(b1-4)GlcNAc
In short: as §1

[25] = target: Fuc(a1-2)[Gal(a1-3)]Gal(b1-4)[Fuc(a1-3)]GlcNAc
In short: as §1

[26] = target: Fuc(a1-2)[Gal(a1-4)]Gal(b1-4)GlcNAc
In short: as §1

[27] = target: Fuc(a1-2)[GalNAc(a1-3)]Gal
In short: as §1

[28] = target: Fuc(a1-2)[GalNAc(a1-3)]Gal(b1-3)GlcNAc
In short: as §1

[29] = target: Fuc(a1-2)[GalNAc(a1-3)]Gal(b1-4)Glc
In short: as §1

[30] = target: Fuc(a1-2)[GalNAc(a1-3)]Gal(b1-4)GlcNAc
In short: as §1

[31] = target: Fuc(a1-2)[GalNAc(a1-3)]Gal(b1-4)[Fuc(a1-3)]GlcNAc
In short: as §1

[32] = target: Fuc(a1-2)[GalNAc(a1-4)]Gal(b1-4)GlcNAc
In short: as §1

[33] = target: Fuc(a1-2)[GalNAc(b1-3)]Gal
In short: as §1

[34] = target: Fuc(a1-3)GlcNAc
In short: as §1

[35] = target: Fuc(a1-3)[Gal(b1-4)]Glc6S
In short: as §1

[36] = target: Fuc(a1-3)[Gal(b1-4)]GlcNAc
In short: as §1

[37] = target: Fuc(a1-3)[Gal(b1-4)]GlcNAc(b1-2)Man(a1-3)[Fuc(a1-3)[Gal(b1-4)]GlcNAc(b1-2)Man(a1-6)]Man(b1-4)GlcNAc(b1-4)GlcNAc
In short: as §1

[38] = target: Fuc(a1-3)[Gal(b1-4)]GlcNAc(b1-2)Man(a1-6)[Gal(b1-4)GlcNAc(b1-2)Man(a1-3)]Man(b1-4)GlcNAc(b1-4)GlcNAc
In short: as §1

[39] = target: Fuc(a1-3)[Gal(b1-4)]GlcNAc(b1-3)Gal(b1-3)[Fuc(a1-4)]GlcNAc
In short: as §1

[40] = target: Fuc(a1-3)[Gal(b1-4)]GlcNAc(b1-4)Gal(b1-4)[Fuc(a1-3)]GlcNAc
In short: as §1

[41] = target: Fuc(a1-3)[Gal(b1-4)]GlcNAc(b1-4)Gal(b1-4)[Fuc(a1-3)]GlcNAc(b1-4)Gal(b1-4)[Fuc(a1-3)]GlcNAc
In short: as §1

[42] = target: Fuc(a1-3)[Gal(b1-4)]GlcNAc6S
In short: as §1

[43] = target: Fuc(a1-3)[Gal3S(b1-4)]Glc6S
In short: as §1

[44] = target: Fuc(a1-3)[Gal3S(b1-4)]GlcNAc
In short: as §1

[45] = target: Fuc(a1-3)[Gal3S(b1-4)]GlcNAc6S
In short: as §1

B1: MUC1-SEA-mFcIgG2a (Homo sapiens), P15941 (SEA domain only) (protein)
chain: DAAQPARRAVRSSSELTSEQKLISEEDLSRLVHNGTSARATTTPASKSTPFSIPSHHSDTPTTLASHSTKTDASSTHHSTVPPLTSSNHSTSPQLSTGVSFFFLSFHISNLQFNSSLEDPSTDYYQELQRDISEMFLQIYKQGGFLGLSNIKFRPGSVVVQLTLAFREGTINVHDVETQFNQYKTEAASRYNLTISDASVSDVPFPFSAQSGSDDDDKALEPRGPTIKPCPPCKCPAPNLLGGPSVFIFPPKIKDVLMISLSPIVTCVVVDVSEDDPDVQISWFVNNVEVHTAQTQTHREDYNSTLRVVSALPIQHQDWMSGKEFKCKVNNKDLPAPIERTISKPKGSVRAPQVYVLPPPEEEMTKKQVTLTCMVTDFMPEDIYVEWTNNGKTELNYKNTEPVLDSDGSYFMYSKLRVEKKNWVERNSYSCSVVHEGLHNHHTTKSFSRTPGKHHHHH
- glycan array binding signal (z-score) [1]: -0.228
- glycan array binding signal (z-score) [2]: -0.514
- glycan array binding signal (z-score) [3]: 7.39
- glycan array binding signal (z-score) [4]: -0.439
- glycan array binding signal (z-score) [5]: -0.138
- glycan array binding signal (z-score) [6]: 0.04
- glycan array binding signal (z-score) [7]: -0.293
- glycan array binding signal (z-score) [8]: -0.241
- glycan array binding signal (z-score) [9]: 0.163
- glycan array binding signal (z-score) [10]: -0.327
- glycan array binding signal (z-score) [11]: -0.377
- glycan array binding signal (z-score) [12]: -0.323
- glycan array binding signal (z-score) [13]: -0.213
- glycan array binding signal (z-score) [14]: -0.347
- glycan array binding signal (z-score) [15]: -0.269
- glycan array binding signal (z-score) [16]: -0.477
- glycan array binding signal (z-score) [17]: 0.459
- glycan array binding signal (z-score) [18]: 0.033
- glycan array binding signal (z-score) [19]: 1.99
- glycan array binding signal (z-score) [20]: 0.294
- glycan array binding signal (z-score) [21]: 0.424
- glycan array binding signal (z-score) [22]: -0.155
- glycan array binding signal (z-score) [23]: 0.103
- glycan array binding signal (z-score) [24]: -0.528
- glycan array binding signal (z-score) [25]: 0.281
- glycan array binding signal (z-score) [26]: 0.211
- glycan array binding signal (z-score) [27]: -0.446
- glycan array binding signal (z-score) [28]: -0.439
- glycan array binding signal (z-score) [29]: -0.086
- glycan array binding signal (z-score) [30]: -0.428
- glycan array binding signal (z-score) [31]: -0.497
- glycan array binding signal (z-score) [32]: -0.184
- glycan array binding signal (z-score) [33]: -0.373
- glycan array binding signal (z-score) [34]: 0.737
- glycan array binding signal (z-score) [35]: -0.181
- glycan array binding signal (z-score) [36]: 0.485
- glycan array binding signal (z-score) [37]: 0.178
- glycan array binding signal (z-score) [38]: -0.32
- glycan array binding signal (z-score) [39]: -0.46
- glycan array binding signal (z-score) [40]: -0.399
- glycan array binding signal (z-score) [41]: -0.045
- glycan array binding signal (z-score) [42]: 0.148
- glycan array binding signal (z-score) [43]: 0.745
- glycan array binding signal (z-score) [44]: -0.378
- glycan array binding signal (z-score) [45]: 1.11
